The source of these data is patent publication US20100260668A1 (published 2010).

The target of test [1] is T1, IGF1R (antigen of the capture ELISA table).
T1 construct: No IGF1R capture ELISA method is described; also called IGFR
Put plainly: antigen capture ELISA, IGF1R; N-terminal VD. (An ELISA detects its analyte on a solid surface through an enzyme-linked reagent.)

A further test has as its target T2, IGF1R.
T2 construct: whole, on cells; also called insulin-like growth factor receptor
Put plainly: flow cytometry on cells carrying the target, 2 ug/mL; N-terminal VD. On the technique in general: In flow cytometry, cells or beads pass a laser one at a time.

B1: DVD032 (bispecific antibody, human IgG1, kappa)
heavy: EVQLLESGGGLVQPGGSLRLSCTASGFTFSSYAMNWVRQAPGKGLEWVSAISGSGGTTFYADSVKGRFTISRDNSRTTLYLQMNSLRAEDTAVYYCAKDLGWSDSYYYYYGMDVWGQGTTVTVSSASTKGP[omitted - about 450 residues with a human IgG1 Fc]
light: DIQMTQFPSSLSASVGDRVTITCRASQGIRNDLGWYQQKPGKAPKRLIYAASRLHRGVPSRFSGSGSGTEFTLTISSLQPEDFATYYCLQHNSYPCSFGQGTKLEIKRTVAA[omitted - about 200 residues]
notes: DVD-Ig; also called IGF1R / HER-2 DVD-Ig; DVD032H
As to B1, the EC50 (as a rule, the concentration at which the effect is half-maximal) in test [1] was 0.2 nM.

B2: DVD032 (bispecific antibody, human IgG1, kappa)
heavy: EVQLLESGGGLVQPGGSLRLSCTASGFTFSSYAMNWVRQAPGKGLEWVSAISGSGGTTFYADSVKGRFTISRDNSRTTLYLQMNSLRAEDTAVYYCAKDLGWSDSYYYYYGMDVWGQGTTVTVSSASTKGP[omitted - about 450 residues with a human IgG1 Fc]
light: DIQMTQFPSSLSASVGDRVTITCRASQGIRNDLGWYQQKPGKAPKRLIYAASRLHRGVPSRFSGSGSGTEFTLTISSLQPEDFATYYCLQHNSYPCSFGQGTKLEIKRTVAA[omitted - about 200 residues]
notes: DVD-Ig; also called IGF1R and HER-2 DVD-Ig
Regarding B2, the “FACS Geometric Mean N-terminal” value with IGF1R is 34.6.
